Consider 115 sequences from the BET-seq Pho4 binding data (Le et al. 2018).

The other results are listed elsewhere or left out. Values were computed here from the reads of four pooled replicates and scatter widely.

The target of the experiment is T1, Pho4 (S. cerevisiae) (UniProt P07270).
T1 sequence: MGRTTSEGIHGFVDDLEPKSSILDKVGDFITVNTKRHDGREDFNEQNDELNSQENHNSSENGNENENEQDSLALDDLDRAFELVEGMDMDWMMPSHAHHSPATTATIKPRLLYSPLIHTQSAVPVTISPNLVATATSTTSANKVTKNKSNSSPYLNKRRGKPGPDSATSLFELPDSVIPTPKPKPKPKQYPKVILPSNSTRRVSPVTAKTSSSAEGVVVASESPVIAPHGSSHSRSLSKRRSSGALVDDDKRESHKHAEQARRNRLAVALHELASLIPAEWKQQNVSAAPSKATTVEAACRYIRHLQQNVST
Nature of the experiment: relative binding free energy (BET-seq); higher = weaker binding. Conditions: reference: library average.
Turning to AAGGGCACGTGGTGTT, the “relative binding free energy” value was -0.06 kcal/mol.

Turning to CGTTACACGTGATGTT, the “relative binding free energy” value worked out at 0.25 kcal/mol.

Turning to ATTATCACGTGGTTTG, the “relative binding free energy” value was 0.08 kcal/mol.

Consider AAGATCACGTGGCGGG, for which the “relative binding free energy” value is 0.1 kcal/mol.

As for TTCAGCACGTGGGCTT, the “relative binding free energy” value is -0.23 kcal/mol.

For the sequence TTATTCACGTGCATTG, the “relative binding free energy” value is 0.12 kcal/mol.

Consider TTGGGCACGTGGAGCA, for which the “relative binding free energy” value is -0.02 kcal/mol.

Turning to GTGAGCACGTGTGTAA, the “relative binding free energy” value amounted to 0.14 kcal/mol.

For the sequence AAGATCACGTGGAATT, the “relative binding free energy” value was 0.32 kcal/mol.

As for GGAGTCACGTGTGATT, the “relative binding free energy” value is 0.26 kcal/mol.

In the case of CGTCGCACGTGGATGG, the “relative binding free energy” value is -0.01 kcal/mol.

With GTCGCCACGTGTGTGG, the “relative binding free energy” value was -0.02 kcal/mol.

Take GAACACACGTGGGTGT: the “relative binding free energy” value was -0.06 kcal/mol.

On to TTTGTCACGTGCAGAA, for which the “relative binding free energy” value was found to be 0.19 kcal/mol.

TTAGGCACGTGTAGGA: the “relative binding free energy” value was -0.04 kcal/mol.

For the sequence AGTCACACGTGTGAGT, the “relative binding free energy” value worked out at 0.07 kcal/mol.

As for GTGGACACGTGGCTTG, the “relative binding free energy” value was -0.07 kcal/mol.

Turning to ATTGGCACGTGATGAA, the “relative binding free energy” value is -0.05 kcal/mol.

As to CTGGTCACGTGTGTGG, the “relative binding free energy” value is 0.18 kcal/mol.

Turning to TTTGACACGTGTCTGG, the “relative binding free energy” value was determined as 0.16 kcal/mol.

As to CGTTTCACGTGGATGC, the “relative binding free energy” value worked out at 0.27 kcal/mol.

As for AGAGTCACGTGTTGCA, the “relative binding free energy” value is 0.06 kcal/mol.

TATCACACGTGAGGGG: the “relative binding free energy” value was determined as 0.32 kcal/mol.

For TTAGTCACGTGTAGTG, the “relative binding free energy” value is 0.11 kcal/mol.

Turning to CTGGGCACGTGCTGGT, the “relative binding free energy” value is -0.15 kcal/mol.

Turning to TAGTACACGTGATAGT, the “relative binding free energy” value is 0.16 kcal/mol.

Consider TTAGTCACGTGGTGTG, for which the “relative binding free energy” value amounted to 0.09 kcal/mol.

In the case of TATCACACGTGGAGGG, the “relative binding free energy” value was 0.1 kcal/mol.

Regarding TGAAACACGTGGATTT, the “relative binding free energy” value turned out to be 0.12 kcal/mol.

Take CTGTGCACGTGTGTTG: the “relative binding free energy” value was -0.02 kcal/mol.

Turning to TTTGTCACGTGTAACA, the “relative binding free energy” value came to 0.31 kcal/mol.

In the case of TGTTGCACGTGATGGT, the “relative binding free energy” value came to 0.13 kcal/mol.

Take GGTTCCACGTGGAGGC: the “relative binding free energy” value was determined as 0.19 kcal/mol.

With CGAATCACGTGTTGTT, the “relative binding free energy” value amounted to 0.24 kcal/mol.

Regarding TTTTTCACGTGGGACT, the “relative binding free energy” value is 0.15 kcal/mol.

In the case of TCGGGCACGTGAAGAG, the “relative binding free energy” value was 0.05 kcal/mol.

As to AAGTGCACGTGGCTTT, the “relative binding free energy” value was -0.15 kcal/mol.

With TTATACACGTGTGGAT, the “relative binding free energy” value is 0.02 kcal/mol.

As to TTGTGCACGTGTTTTG, the “relative binding free energy” value was 0.05 kcal/mol.

On to GCGGGCACGTGATAGG, for which the “relative binding free energy” value was -0.04 kcal/mol.

Take TATGTCACGTGGGTAG: the “relative binding free energy” value is -0.03 kcal/mol.

On to TCAGACACGTGGTTTG, for which the “relative binding free energy” value was -0.05 kcal/mol.

Turning to TAGATCACGTGTTGAT, the “relative binding free energy” value came out at 0.09 kcal/mol.

On to ACATACACGTGGGGGG, for which the “relative binding free energy” value is -0.07 kcal/mol.

As to TCTTTCACGTGGGGGT, the “relative binding free energy” value came out at 0.12 kcal/mol.

On to TGATTCACGTGTGTGG, for which the “relative binding free energy” value was 0.29 kcal/mol.

With ATTTGCACGTGCTGAT, the “relative binding free energy” value amounted to 0.03 kcal/mol.

In the case of GCGATCACGTGGAGGG, the “relative binding free energy” value stood at 0.14 kcal/mol.

Consider TTGAACACGTGATTGA, for which the “relative binding free energy” value turned out to be 0.11 kcal/mol.

Consider TTGGACACGTGGATAA, for which the “relative binding free energy” value is -0.01 kcal/mol.

With GCGGGCACGTGTTCGT, the “relative binding free energy” value stood at 0.04 kcal/mol.

Turning to ACAGTCACGTGAGTGT, the “relative binding free energy” value stood at 0.26 kcal/mol.

Consider TTATGCACGTGCTAGG, for which the “relative binding free energy” value was -0.13 kcal/mol.

Consider TGTCTCACGTGGCGTT, for which the “relative binding free energy” value was 0.21 kcal/mol.

Regarding GCTGGCACGTGAGGGC, the “relative binding free energy” value worked out at 0.16 kcal/mol.

Consider TTACACACGTGAGGTG, for which the “relative binding free energy” value stood at 0.09 kcal/mol.

With GGTTTCACGTGTACAA, the “relative binding free energy” value worked out at 0.44 kcal/mol.

AGGGACACGTGTCATA: the “relative binding free energy” value was 0.1 kcal/mol.

Take TCGGTCACGTGATATT: the “relative binding free energy” value is 0.27 kcal/mol.

ATAAACACGTGTGAGT: the “relative binding free energy” value is -0.02 kcal/mol.

Take TAAGGCACGTGATATA: the “relative binding free energy” value was determined as 0.01 kcal/mol.

For the sequence TGTAGCACGTGTGACT, the “relative binding free energy” value was -0.13 kcal/mol.

CGTCGCACGTGTGAGG: the “relative binding free energy” value is 0.12 kcal/mol.

With GTTTACACGTGCATTT, the “relative binding free energy” value came out at 0.19 kcal/mol.

CAAGGCACGTGTGTGA: the “relative binding free energy” value is -0.17 kcal/mol.

For the sequence GAATTCACGTGAGTTA, the “relative binding free energy” value is 0.39 kcal/mol.

Take TCGTACACGTGGATTG: the “relative binding free energy” value was 0.01 kcal/mol.

ATATTCACGTGGTTCG: the “relative binding free energy” value was 0.08 kcal/mol.

AAGTTCACGTGGATTT: the “relative binding free energy” value worked out at 0.31 kcal/mol.

For TGATTCACGTGTCTGG, the “relative binding free energy” value was found to be 0.2 kcal/mol.

For the sequence GTTAGCACGTGGATAA, the “relative binding free energy” value is -0.08 kcal/mol.

TACTACACGTGTGGGT: the “relative binding free energy” value was 0.01 kcal/mol.

Regarding GGTGTCACGTGGTAGA, the “relative binding free energy” value came out at 0.08 kcal/mol.

In the case of TATATCACGTGATGGC, the “relative binding free energy” value came to 0.33 kcal/mol.

CGTAACACGTGATGAT: the “relative binding free energy” value was 0.34 kcal/mol.

Turning to GTAAGCACGTGTGTAG, the “relative binding free energy” value is -0.07 kcal/mol.

For TTTTGCACGTGCGGGC, the “relative binding free energy” value came to 0.02 kcal/mol.

For the sequence TGCTTCACGTGGATTG, the “relative binding free energy” value turned out to be 0.22 kcal/mol.

As to GCTGGCACGTGTTTGG, the “relative binding free energy” value is -0.08 kcal/mol.

Take GTAAACACGTGAAGGT: the “relative binding free energy” value turned out to be 0.36 kcal/mol.

As to GAAATCACGTGGTGTT, the “relative binding free energy” value turned out to be 0.2 kcal/mol.

Take ATTGGCACGTGATTTA: the “relative binding free energy” value turned out to be 0 kcal/mol.

For CATAGCACGTGGATGG, the “relative binding free energy” value is -0.02 kcal/mol.

As for AGGTGCACGTGGGGGA, the “relative binding free energy” value is -0.2 kcal/mol.

AGTGGCACGTGTTGCG: the “relative binding free energy” value was -0.11 kcal/mol.

On to GGTTACACGTGGATGA, for which the “relative binding free energy” value came out at 0.1 kcal/mol.

For TAGGTCACGTGTTTAC, the “relative binding free energy” value turned out to be 0.07 kcal/mol.

Consider TTGGTCACGTGCGATA, for which the “relative binding free energy” value was found to be 0.2 kcal/mol.

Consider GGGGTCACGTGTCTAG, for which the “relative binding free energy” value was -0.01 kcal/mol.

As to AGAATCACGTGTTGGG, the “relative binding free energy” value came to 0.16 kcal/mol.

In the case of GGAGGCACGTGGTGGT, the “relative binding free energy” value was -0.05 kcal/mol.

Take ATGTTCACGTGGTAGG: the “relative binding free energy” value came to 0.11 kcal/mol.

Turning to CGGTTCACGTGGGGCG, the “relative binding free energy” value is 0.23 kcal/mol.

With AGTATCACGTGAGATT, the “relative binding free energy” value came to 0.25 kcal/mol.

Regarding GGTACCACGTGGGGCG, the “relative binding free energy” value is -0.18 kcal/mol.

For TCCGTCACGTGAGTGT, the “relative binding free energy” value was found to be 0.31 kcal/mol.

For TTGGACACGTGTGGGA, the “relative binding free energy” value was 0.19 kcal/mol.

As to ATTATCACGTGAGTTA, the “relative binding free energy” value came out at 0.37 kcal/mol.

As for TTCTTCACGTGTCTTG, the “relative binding free energy” value came to 0.43 kcal/mol.

Regarding TGAGCCACGTGGGTAG, the “relative binding free energy” value is -0.18 kcal/mol.

CGTGCCACGTGTGTAT: the “relative binding free energy” value is -0.01 kcal/mol.

Take TTGTACACGTGTGAGT: the “relative binding free energy” value amounted to 0.09 kcal/mol.

For TTGGACACGTGGGACA, the “relative binding free energy” value is -0.06 kcal/mol.

As to TTATGCACGTGTACTG, the “relative binding free energy” value is -0.14 kcal/mol.

TGGCTCACGTGTCAGG: the “relative binding free energy” value came to 0.34 kcal/mol.

Consider GTTATCACGTGCGGTG, for which the “relative binding free energy” value was 0.09 kcal/mol.

In the case of GCAAGCACGTGGGTAG, the “relative binding free energy” value was -0.16 kcal/mol.

As to CTTTGCACGTGTGAAG, the “relative binding free energy” value amounted to 0.1 kcal/mol.

On to GTGATCACGTGGCTTG, for which the “relative binding free energy” value was -0.01 kcal/mol.

Take GCCGTCACGTGTGGTA: the “relative binding free energy” value is 0.21 kcal/mol.

For the sequence CTGTTCACGTGGGTGG, the “relative binding free energy” value worked out at 0.07 kcal/mol.

Take TAGGGCACGTGTTATG: the “relative binding free energy” value is -0.16 kcal/mol.

In the case of TTAGGCACGTGTTCGT, the “relative binding free energy” value is -0.09 kcal/mol.

As for AGGTTCACGTGCGCGG, the “relative binding free energy” value came to 0.15 kcal/mol.

In the case of TGATTCACGTGGAGGA, the “relative binding free energy” value worked out at 0.33 kcal/mol.
